# Laboratory results: the supplement of paper PMC7826260
# The list shows a part of the results. The data describe in vitro nicking of single-stranded DNA by Rep domains at 3 µM enzyme and 37 °C for 1 h; the strands have 90 letters, of which the middle is given. Values are log2 of uncut reads against the no-enzyme pool; the lower, the more was cut; hits are not called. Counts are relative to all reads; where an enzyme cuts many sequences, the uncut ones exceed 0.
# What was measured:
# Assay in all cases: uncleaved DNA left, log2 of reads against the no-enzyme library (log2 ratio); higher = less cleavage (more negative = more Rep cleavage of the k-mer); sequences stand for … in CTCGTCCG…ACCGGAGA
# [1] = test system: T1, Rep nickase domain of Muscovy duck circovirus
# T1 sequence (residues 1-111 of Rep, tag left off): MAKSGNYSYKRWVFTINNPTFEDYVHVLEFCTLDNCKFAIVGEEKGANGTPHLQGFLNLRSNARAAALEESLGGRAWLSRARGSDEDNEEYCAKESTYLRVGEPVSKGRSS
# Method: (§1)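 A pool of 90-nt single-stranded DNAs with seven random bases just before the constant AC of the nick site (name = the seven bases) was cut by 3 µM recombinant His6-SUMO-tagged Rep nickase domain (300 nM DNA, 50 mM HEPES pH 8.0, 50 mM NaCl, 1 mM MnCl2, 1 h, 37 °C, three replicates). Uncut DNA was amplified and sequenced.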
# [2] = test system: T2, Rep nickase domain of banana bunchy top virus
# T2 sequence (residues 1-94 of Rep, tag left off): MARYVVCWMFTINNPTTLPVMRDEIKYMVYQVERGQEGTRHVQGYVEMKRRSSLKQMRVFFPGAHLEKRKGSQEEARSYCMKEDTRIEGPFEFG
# Method: as §1
# [3] = test system: T3, Rep nickase domain of cabbage leaf curl virus
# T3 sequence (residues 1-116 of Rep, tag left off): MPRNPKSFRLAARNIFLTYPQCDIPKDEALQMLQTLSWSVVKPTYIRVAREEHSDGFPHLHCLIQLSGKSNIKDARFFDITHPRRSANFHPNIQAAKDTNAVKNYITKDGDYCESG
# Method: as §1
# [4] = test system: T4, Rep nickase domain of chickpea chlorotic dwarf virus
# T4 sequence (residues 1-124 of Rep, tag left off): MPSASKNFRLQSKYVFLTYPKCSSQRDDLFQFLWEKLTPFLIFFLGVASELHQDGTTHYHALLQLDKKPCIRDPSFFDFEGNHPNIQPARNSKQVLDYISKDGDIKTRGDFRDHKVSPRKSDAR
# Method: as §1
# [5] = test system: T5, Rep nickase domain of faba bean necrotic yellows virus
# T5 sequence (residues 1-98 of Rep, tag left off): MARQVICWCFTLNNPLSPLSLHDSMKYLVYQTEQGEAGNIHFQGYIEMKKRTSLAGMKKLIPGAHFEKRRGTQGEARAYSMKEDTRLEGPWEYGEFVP
# Method: as §1
# [6] = test system: T6, Rep nickase domain of maize striate mosaic virus
# T6 sequence (residues 1-117 of Rep, tag left off): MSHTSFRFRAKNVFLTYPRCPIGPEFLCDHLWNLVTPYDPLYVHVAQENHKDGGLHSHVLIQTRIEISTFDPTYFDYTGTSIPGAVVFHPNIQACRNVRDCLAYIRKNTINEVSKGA
# Method: as §1
# [7] = test system: T7, Rep nickase domain of porcine circovirus 2
# T7 sequence (residues 2-116 of Rep, tag left off): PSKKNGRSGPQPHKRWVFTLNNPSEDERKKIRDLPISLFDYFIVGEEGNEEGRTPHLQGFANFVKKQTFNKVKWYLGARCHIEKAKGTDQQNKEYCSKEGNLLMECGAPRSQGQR
# Method: as §1
# [8] = test system: T8, Rep nickase domain of tomato golden mosaic virus
# T8 sequence (residues 1-124 of Rep, tag left off): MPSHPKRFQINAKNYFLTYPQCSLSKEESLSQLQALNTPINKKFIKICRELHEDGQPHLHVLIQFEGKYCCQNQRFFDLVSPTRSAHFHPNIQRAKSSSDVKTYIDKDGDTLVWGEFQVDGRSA
# Method: as §1
# [9] = test system: T9, Rep nickase domain of tomato yellow leaf curl virus
# T9 sequence (residues 1-136 of Rep, tag left off): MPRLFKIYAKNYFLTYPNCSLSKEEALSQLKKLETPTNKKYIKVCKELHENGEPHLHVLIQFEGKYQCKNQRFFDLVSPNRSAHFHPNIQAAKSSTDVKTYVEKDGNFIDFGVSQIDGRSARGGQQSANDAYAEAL
# Method: as §1
# [10] = test system: T10, Rep nickase domain of wheat dwarf virus
# T10 sequence (residues 1-137 of Rep, tag left off): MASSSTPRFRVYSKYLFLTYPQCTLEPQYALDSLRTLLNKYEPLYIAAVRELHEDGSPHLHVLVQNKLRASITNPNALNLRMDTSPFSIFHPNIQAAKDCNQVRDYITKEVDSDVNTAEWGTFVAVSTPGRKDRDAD
# Method: as §1
Sequence,uncleaved DNA left (log2) [1],uncleaved DNA left (log2) [2],uncleaved DNA left (log2) [3],uncleaved DNA left (log2) [4],uncleaved DNA left (log2) [5],uncleaved DNA left (log2) [6],uncleaved DNA left (log2) [7],uncleaved DNA left (log2) [8],uncleaved DNA left (log2) [9],uncleaved DNA left (log2) [10]
TTGTATA,0.151,0.0793,0.268,-0.687,0.118,0.547,0.0124,0.131,0.0286,-0.0145
GCGTCTC,0.0993,0.0368,0.24,0.454,0.062,0.76,-0.0327,0.0836,0.134,0.11
GCGTAGA,0.0927,0.0349,0.161,0.468,0.0243,-0.0142,0.106,0.0693,0.0706,0.105
CAGTCCC,0.00719,-0.0298,0.0111,-0.157,-0.19,0.0398,-2.74,0.022,0.0653,0.0818
CCTGTGG,-0.0509,0.022,0.295,0.844,-0.0479,0.442,0.0953,0.114,-0.0376,-0.0146
AGTTGAA,-0.113,-0.105,-0.0396,0.0962,-0.00562,-0.339,-0.529,0.048,-0.0999,-0.064
ATGAGTG,0.127,0.199,-0.234,0.303,0.142,-0.687,0.27,0.26,0.05,0.0337
TGGGAAA,0.108,0.165,0.914,1.99,-0.0158,2.2,0.197,-0.0253,0.142,0.144
CACCGCA,0.00254,0.101,-0.338,-1.48,0.0955,-0.857,-0.066,0.00266,0.00879,-0.101
CAGGGAC,0.0787,0.154,0.803,1.97,0.213,2.09,0.364,0.295,0.155,0.251
GCTCTGA,0.00604,0.0673,0.164,0.534,-0.0348,0.521,0.0286,0.144,0.0062,0.0726
AGTGCGA,0.0256,-0.084,-0.723,-0.0884,0.0593,-0.721,0.0407,-0.0998,0.166,-0.0429
TTAATAG,0.0811,0.0328,-0.617,-0.596,0.15,-1.19,0.182,0.069,0.0801,0.0858
CGAATTG,0.0798,0.0373,0.102,0.578,0.0923,1.28,0.0779,0.0206,-0.00675,0.0994
ACTGTGT,0.0682,-0.0381,-0.369,-0.622,-0.144,-1.01,-0.177,0.0208,-0.0374,-0.0448
CTGCGTA,-0.0905,-0.194,-1.11,-0.612,-0.0225,-0.99,-0.123,-0.166,-0.0843,-0.362
CTATGTC,0.0889,-0.183,-0.13,-0.337,0.0236,-1.08,-0.0878,-0.179,-0.0537,-0.117
CCGCTAA,-0.109,-0.0714,-0.304,-0.415,-0.0872,-0.647,-0.078,-0.099,-0.283,0.00674
GCAGCAT,0.0983,0.153,0.364,0.928,0.0596,0.43,0.218,0.116,0.101,0.111
TGTTCGT,-0.0592,0.0116,-0.226,-0.698,0.0357,-0.971,-0.0937,-0.0694,0.0746,-0.00116
CAGTGAC,-0.063,-0.00605,0.094,0.437,0.112,0.0872,-0.0017,0.0211,-0.0496,-0.0585
GCTGGCG,0.00243,0.0672,-0.441,0.989,0.0782,0.284,0.176,0.0558,0.0524,-0.0628
CACTGGA,-0.0194,-0.101,-0.0339,0.08,0.0676,-0.0902,-0.991,0.0243,-0.0395,0.0793
TAGTCTA,-0.0415,-0.627,-0.255,-2.3,-0.812,-0.172,-3.09,-0.00628,0.0951,-0.0418
GAGTCGC,-0.0267,-0.0259,-0.142,-0.129,0.0884,-0.549,-0.9,-0.0398,0.000298,0.134
GGTTTGG,0.0957,0.0431,0.183,0.447,0.0452,0.0019,0.0604,0.111,0.0802,0.048
CTCGGCT,-0.107,-0.197,-0.291,-0.958,-0.017,-0.828,-0.088,-0.0891,-0.00858,-0.107
AGAGATG,-0.0127,-0.049,0.0121,0.684,-0.0495,1.62,0.133,0.0459,-0.173,-0.0087
GACGGAT,-0.0476,-0.0928,0.184,1.35,-0.139,1.75,0.0123,0.115,-0.129,0.0152
